Paper PMC4242493
This is one part of the list. The list includes weakly bound sequences.

Target: MaxL homodimer (UniProt P61244)
Assay: universal protein-binding microarray (PBM)
Details: PBS-based mixture, 10 nM His-tagged protein dimer, 2% milk, 200 ng/uL BSA, 50 ng/uL salmon testes DNA, 0.02% TX-100; detection with Alexa 488 anti-His …; high values mean tight binding; most listed sequences are background and not binding sites; double strand, one strand shown

Chain of UniProt P61244 (P61244 whole entry): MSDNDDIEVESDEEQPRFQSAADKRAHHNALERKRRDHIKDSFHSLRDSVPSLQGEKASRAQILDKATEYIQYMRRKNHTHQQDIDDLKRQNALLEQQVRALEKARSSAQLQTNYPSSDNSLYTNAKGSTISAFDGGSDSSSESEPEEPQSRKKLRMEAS

Q: With CGCTAGAG as the sequence, how does the binding signal (normalized occupancy) read?
A: 0.0701

Q: With AGAACCCG as the sequence, how does the binding signal (normalized occupancy) read?
A: 0.0723

Q: AGCTAGGC was tested. Which binding signal (normalized occupancy) did it give?
A: 0.0696

Q: ATCCTCTG was tested. Which binding signal (normalized occupancy) did it give?
A: 0.0778

Q: With ATCTATCA as the sequence, how does the binding signal (normalized occupancy) read?
A: 0.0812

Q: Which binding signal (normalized occupancy) does the source give for GGCTTTGA here?
A: 0.0672

Q: How did the binding signal (normalized occupancy) turn out when CGCTGTTA was run?
A: 0.0766

Q: For AGAACGAG, which binding signal (normalized occupancy) is on record?
A: 0.0846

Q: How did the binding signal (normalized occupancy) turn out when CCAATGGC was run?
A: 0.0707

Q: For AGTGCTGA, which binding signal (normalized occupancy) is on record?
A: 0.0722

Q: Which binding signal (normalized occupancy) does the source give for TCTATCAA here?
A: 0.0789

Q: For AACTGCTG, which binding signal (normalized occupancy) is on record?
A: 0.0663

Q: How did the binding signal (normalized occupancy) turn out when CCCTGCCC was run?
A: 0.0787

Q: How did the binding signal (normalized occupancy) turn out when CCAGTAGA was run?
A: 0.0743

Q: With GACAACTA as the sequence, how does the binding signal (normalized occupancy) read?
A: 0.0752

Q: Which binding signal (normalized occupancy) does the source give for CCGGCACC here?
A: 0.0757

Q: Which binding signal (normalized occupancy) does the source give for ACATGGCC here?
A: 0.0878

Q: How did the binding signal (normalized occupancy) turn out when ATTGAAGC was run?
A: 0.0724

Q: For CCCACCCG, which binding signal (normalized occupancy) is on record?
A: 0.0829

Q: For CAATCGTA, which binding signal (normalized occupancy) is on record?
A: 0.0786

Q: With AAAGAGTC as the sequence, how does the binding signal (normalized occupancy) read?
A: 0.0701

Q: Which binding signal (normalized occupancy) does the source give for GCTACTAA here?
A: 0.0759

Q: For ATTAAATC, which binding signal (normalized occupancy) is on record?
A: 0.0755

Q: How did the binding signal (normalized occupancy) turn out when CACCCGCA was run?
A: 0.0723

Q: With CGTGTTCC as the sequence, how does the binding signal (normalized occupancy) read?
A: 0.083

Q: How did the binding signal (normalized occupancy) turn out when CAGTCATA was run?
A: 0.0793

Q: Which binding signal (normalized occupancy) does the source give for CCGACAGG here?
A: 0.0726

Q: Which binding signal (normalized occupancy) does the source give for GCATTCTA here?
A: 0.0844

Q: For CTGCAAGA, which binding signal (normalized occupancy) is on record?
A: 0.0702

Q: Which binding signal (normalized occupancy) does the source give for ACATAGGT here?
A: 0.075

Q: For AAAGCACG, which binding signal (normalized occupancy) is on record?
A: 0.0922

Q: ACGTTATC was tested. Which binding signal (normalized occupancy) did it give?
A: 0.0926

Q: How did the binding signal (normalized occupancy) turn out when AAGATTCT was run?
A: 0.0678

Q: ACAGGAGA was tested. Which binding signal (normalized occupancy) did it give?
A: 0.0792

Q: For AACAATGC, which binding signal (normalized occupancy) is on record?
A: 0.0816

Q: For GCAAGTTA, which binding signal (normalized occupancy) is on record?
A: 0.0701

Q: ATGATAAG was tested. Which binding signal (normalized occupancy) did it give?
A: 0.0844

Q: With TAGATAGA as the sequence, how does the binding signal (normalized occupancy) read?
A: 0.0741

Q: For GACTCCTA, which binding signal (normalized occupancy) is on record?
A: 0.0736

Q: Which binding signal (normalized occupancy) does the source give for CAGTCGCA here?
A: 0.0738

Q: Which binding signal (normalized occupancy) does the source give for CCCGTGCC here?
A: 0.0787

Q: How did the binding signal (normalized occupancy) turn out when CATTGGTC was run?
A: 0.0741

Q: For TAAATAGA, which binding signal (normalized occupancy) is on record?
A: 0.076

Q: For ATCGAATC, which binding signal (normalized occupancy) is on record?
A: 0.0788

Q: With TCAGCTGA as the sequence, how does the binding signal (normalized occupancy) read?
A: 0.0752

Q: Which binding signal (normalized occupancy) does the source give for AACCCAGA here?
A: 0.0685

Q: Which binding signal (normalized occupancy) does the source give for TACCGCTA here?
A: 0.0749

Q: AGTAAAGA was tested. Which binding signal (normalized occupancy) did it give?
A: 0.0733

Q: Which binding signal (normalized occupancy) does the source give for CCATTTAG here?
A: 0.0773

Q: How did the binding signal (normalized occupancy) turn out when AACATACC was run?
A: 0.086

Q: For TATGTCAA, which binding signal (normalized occupancy) is on record?
A: 0.0833

Q: With AAGTTTTG as the sequence, how does the binding signal (normalized occupancy) read?
A: 0.0696

Q: Which binding signal (normalized occupancy) does the source give for ACGAAATA here?
A: 0.0748

Q: For ATAGAAGC, which binding signal (normalized occupancy) is on record?
A: 0.0772

Q: AGAACTCC was tested. Which binding signal (normalized occupancy) did it give?
A: 0.0751

Q: With CGGGCGGC as the sequence, how does the binding signal (normalized occupancy) read?
A: 0.0664

Q: With GAGCAAGA as the sequence, how does the binding signal (normalized occupancy) read?
A: 0.0711

Q: For TCTATTAA, which binding signal (normalized occupancy) is on record?
A: 0.0774

Q: How did the binding signal (normalized occupancy) turn out when AGCTCCTA was run?
A: 0.0717

Q: Which binding signal (normalized occupancy) does the source give for AGGAACCC here?
A: 0.0717

Q: How did the binding signal (normalized occupancy) turn out when GAAATCCA was run?
A: 0.0736

Q: Which binding signal (normalized occupancy) does the source give for ATTCGATC here?
A: 0.078

Q: For CCAATAGG, which binding signal (normalized occupancy) is on record?
A: 0.0767

Q: ACTGTCAC was tested. Which binding signal (normalized occupancy) did it give?
A: 0.0768

Q: For ATTGTAGA, which binding signal (normalized occupancy) is on record?
A: 0.0778

Q: For TCTAGCAA, which binding signal (normalized occupancy) is on record?
A: 0.0728

Q: TCTACTAA was tested. Which binding signal (normalized occupancy) did it give?
A: 0.0805

Q: For ACTCAATA, which binding signal (normalized occupancy) is on record?
A: 0.0757

Q: With ATCTTGAA as the sequence, how does the binding signal (normalized occupancy) read?
A: 0.0767

Q: How did the binding signal (normalized occupancy) turn out when CGCATAAA was run?
A: 0.0847

Q: Which binding signal (normalized occupancy) does the source give for ACGTTTAA here?
A: 0.0766

Q: For GAGTAATA, which binding signal (normalized occupancy) is on record?
A: 0.075

Q: How did the binding signal (normalized occupancy) turn out when CATCAGAG was run?
A: 0.0721

Q: For CTCGAACA, which binding signal (normalized occupancy) is on record?
A: 0.075

Q: How did the binding signal (normalized occupancy) turn out when CTATGCGC was run?
A: 0.075

Q: With CCGGTTTC as the sequence, how does the binding signal (normalized occupancy) read?
A: 0.0693

Q: For CTTACAAC, which binding signal (normalized occupancy) is on record?
A: 0.0757

Q: With ACTAGTGA as the sequence, how does the binding signal (normalized occupancy) read?
A: 0.0727

Q: With GATAGTTA as the sequence, how does the binding signal (normalized occupancy) read?
A: 0.0809

Q: How did the binding signal (normalized occupancy) turn out when AACCGTAA was run?
A: 0.0755

Q: For CACTGACA, which binding signal (normalized occupancy) is on record?
A: 0.0741

Q: For AGATCCAG, which binding signal (normalized occupancy) is on record?
A: 0.0704

Q: How did the binding signal (normalized occupancy) turn out when ATTCGAGA was run?
A: 0.0811

Q: Which binding signal (normalized occupancy) does the source give for CTGACACA here?
A: 0.0841

Q: CAGCCGCG was tested. Which binding signal (normalized occupancy) did it give?
A: 0.0729

Q: With ACGCTTAA as the sequence, how does the binding signal (normalized occupancy) read?
A: 0.0769
